For some of these results: What follows is the remainder of the data, with few or none of the strong results. Only a part is listed here, and it is no random draw.

Assay [1] concerns the target MAP/microtubule affinity-regulating kinase 3 (Homo sapiens) (UniProt P27448). As to conditions: at 1 µM.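 Also: reported values are averaged percent inhibition of MARK3.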
The target of assay [2] is T1, MAP/microtubule affinity-regulating kinase 4 (Homo sapiens) (UniProt Q96L34).
T1 sequence (whole entry): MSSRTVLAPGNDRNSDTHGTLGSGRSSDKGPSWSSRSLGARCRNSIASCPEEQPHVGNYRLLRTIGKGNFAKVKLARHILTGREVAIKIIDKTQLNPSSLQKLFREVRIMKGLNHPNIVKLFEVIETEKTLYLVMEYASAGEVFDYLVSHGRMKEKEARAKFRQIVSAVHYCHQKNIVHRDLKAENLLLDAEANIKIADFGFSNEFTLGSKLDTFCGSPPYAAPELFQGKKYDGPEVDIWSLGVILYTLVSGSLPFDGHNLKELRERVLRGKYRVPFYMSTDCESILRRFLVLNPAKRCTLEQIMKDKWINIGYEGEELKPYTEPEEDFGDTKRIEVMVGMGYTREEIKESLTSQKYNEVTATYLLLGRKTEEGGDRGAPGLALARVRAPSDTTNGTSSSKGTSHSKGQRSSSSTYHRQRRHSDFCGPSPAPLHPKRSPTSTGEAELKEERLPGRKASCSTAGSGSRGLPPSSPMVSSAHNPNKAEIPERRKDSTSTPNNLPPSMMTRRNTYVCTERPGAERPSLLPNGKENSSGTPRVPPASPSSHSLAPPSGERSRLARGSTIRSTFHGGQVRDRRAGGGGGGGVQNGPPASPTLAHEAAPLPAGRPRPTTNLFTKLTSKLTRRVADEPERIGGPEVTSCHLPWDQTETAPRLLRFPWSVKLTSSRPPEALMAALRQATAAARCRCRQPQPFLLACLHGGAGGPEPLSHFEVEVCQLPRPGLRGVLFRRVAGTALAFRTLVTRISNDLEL
As to conditions: at 0.1 µM.

Assay [3] has as its target T1, MAP/microtubule affinity-regulating kinase 4 (Homo sapiens). As to conditions: at 1 µM.
Assay [4] has as its target Maternal embryonic leucine zipper kinase (Homo sapiens) (UniProt Q14680). As to conditions: at 0.1 µM.
Assay [5] shares this target. As to conditions: at 1 µM.
The target in assay [6] is MAP kinase-interacting serine/threonine-protein kinase 1 (Homo sapiens) (UniProt Q9BUB5). As to conditions: at 0.1 µM.
Assay [7] has the same target. As to conditions: at 1 µM.
The target of assay [8] is MAP kinase-interacting serine/threonine-protein kinase 2 (Homo sapiens) (UniProt Q9HBH9). As to conditions: at 0.1 µM.
For assay [9] the target is unchanged. As to conditions: at 1 µM.
Assay [10] has as its target T2, Serine/threonine-protein kinase MARK2 (Homo sapiens) (UniProt Q7KZI7).
T2 sequence (whole entry): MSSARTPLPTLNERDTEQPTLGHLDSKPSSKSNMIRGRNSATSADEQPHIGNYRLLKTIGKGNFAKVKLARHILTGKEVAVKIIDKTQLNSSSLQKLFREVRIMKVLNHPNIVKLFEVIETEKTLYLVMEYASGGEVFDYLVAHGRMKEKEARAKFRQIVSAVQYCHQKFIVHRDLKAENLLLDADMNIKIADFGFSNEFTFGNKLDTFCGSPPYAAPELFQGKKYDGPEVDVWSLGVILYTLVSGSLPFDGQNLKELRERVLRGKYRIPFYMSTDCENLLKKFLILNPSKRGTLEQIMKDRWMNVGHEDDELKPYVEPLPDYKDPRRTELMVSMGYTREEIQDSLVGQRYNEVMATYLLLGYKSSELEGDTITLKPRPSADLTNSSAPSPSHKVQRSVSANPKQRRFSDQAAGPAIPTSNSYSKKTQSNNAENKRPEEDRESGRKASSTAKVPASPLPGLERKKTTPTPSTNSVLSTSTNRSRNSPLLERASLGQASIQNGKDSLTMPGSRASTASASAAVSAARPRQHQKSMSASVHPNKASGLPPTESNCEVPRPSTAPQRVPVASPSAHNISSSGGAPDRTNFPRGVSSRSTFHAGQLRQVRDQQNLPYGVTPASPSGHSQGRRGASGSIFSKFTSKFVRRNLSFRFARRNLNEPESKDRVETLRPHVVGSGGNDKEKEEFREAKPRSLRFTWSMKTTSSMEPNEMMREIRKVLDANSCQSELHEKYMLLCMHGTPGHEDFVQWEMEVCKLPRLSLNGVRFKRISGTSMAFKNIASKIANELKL
As to conditions: at 0.1 µM.

Assay [11] addresses T2, Serine/threonine-protein kinase MARK2 (Homo sapiens). As to conditions: at 1 µM.
The target in assay [12] is PAS domain-containing serine/threonine-protein kinase (Homo sapiens) (UniProt Q96RG2). As to conditions: at 0.1 µM.
For assay [13] the target is unchanged. As to conditions: at 1 µM.
Assay [14] has as its target Phosphorylase b kinase gamma catalytic chain, skeletal muscle/heart isoform (Homo sapiens) (UniProt Q16816). As to conditions: at 0.1 µM.
Assay [15] has the same target. As to conditions: at 1 µM.
The target in assay [16] is T3, Phosphorylase b kinase gamma catalytic chain, liver/testis isoform (Homo sapiens) (UniProt P15735).
T3 sequence (whole entry): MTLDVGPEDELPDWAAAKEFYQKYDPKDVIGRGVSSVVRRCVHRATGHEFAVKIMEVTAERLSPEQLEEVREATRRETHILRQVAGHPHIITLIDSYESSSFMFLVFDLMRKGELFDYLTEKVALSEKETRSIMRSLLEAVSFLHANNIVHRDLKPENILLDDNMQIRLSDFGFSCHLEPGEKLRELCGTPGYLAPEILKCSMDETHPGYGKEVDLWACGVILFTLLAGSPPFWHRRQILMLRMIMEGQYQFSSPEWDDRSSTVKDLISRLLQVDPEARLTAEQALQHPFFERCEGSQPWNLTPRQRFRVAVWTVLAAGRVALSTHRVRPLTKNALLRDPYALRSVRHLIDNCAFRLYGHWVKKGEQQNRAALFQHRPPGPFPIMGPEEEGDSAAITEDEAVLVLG
As to conditions: at 0.1 µM.

Assay [17] concerns the target T3, Phosphorylase b kinase gamma catalytic chain, liver/testis isoform (Homo sapiens). As to conditions: at 1 µM.
Assay [18] deals with Serine/threonine-protein kinase pim-1 (Homo sapiens) (UniProt P11309). As to conditions: at 0.1 µM.
Assay [19] has the same target. As to conditions: at 1 µM.
The target in assay [20] is Serine/threonine-protein kinase pim-2 (Homo sapiens) (UniProt Q9P1W9). As to conditions: at 0.1 µM.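 Also: reported value is the mean percent inhibition of PIM2, measured in the GSK PKIS kinase inhibitor set screen.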
UniProt Q9P1W9, sequence (Q9P1W9 whole entry, looked up): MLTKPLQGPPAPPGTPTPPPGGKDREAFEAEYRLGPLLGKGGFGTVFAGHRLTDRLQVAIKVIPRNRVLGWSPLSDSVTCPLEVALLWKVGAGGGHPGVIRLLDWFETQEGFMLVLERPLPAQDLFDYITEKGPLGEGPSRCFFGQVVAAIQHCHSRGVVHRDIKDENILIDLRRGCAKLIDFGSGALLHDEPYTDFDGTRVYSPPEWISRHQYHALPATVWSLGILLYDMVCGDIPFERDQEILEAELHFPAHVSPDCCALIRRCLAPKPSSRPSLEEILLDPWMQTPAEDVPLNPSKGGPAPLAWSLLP

UniProt P27448, sequence (P27448 whole entry, looked up): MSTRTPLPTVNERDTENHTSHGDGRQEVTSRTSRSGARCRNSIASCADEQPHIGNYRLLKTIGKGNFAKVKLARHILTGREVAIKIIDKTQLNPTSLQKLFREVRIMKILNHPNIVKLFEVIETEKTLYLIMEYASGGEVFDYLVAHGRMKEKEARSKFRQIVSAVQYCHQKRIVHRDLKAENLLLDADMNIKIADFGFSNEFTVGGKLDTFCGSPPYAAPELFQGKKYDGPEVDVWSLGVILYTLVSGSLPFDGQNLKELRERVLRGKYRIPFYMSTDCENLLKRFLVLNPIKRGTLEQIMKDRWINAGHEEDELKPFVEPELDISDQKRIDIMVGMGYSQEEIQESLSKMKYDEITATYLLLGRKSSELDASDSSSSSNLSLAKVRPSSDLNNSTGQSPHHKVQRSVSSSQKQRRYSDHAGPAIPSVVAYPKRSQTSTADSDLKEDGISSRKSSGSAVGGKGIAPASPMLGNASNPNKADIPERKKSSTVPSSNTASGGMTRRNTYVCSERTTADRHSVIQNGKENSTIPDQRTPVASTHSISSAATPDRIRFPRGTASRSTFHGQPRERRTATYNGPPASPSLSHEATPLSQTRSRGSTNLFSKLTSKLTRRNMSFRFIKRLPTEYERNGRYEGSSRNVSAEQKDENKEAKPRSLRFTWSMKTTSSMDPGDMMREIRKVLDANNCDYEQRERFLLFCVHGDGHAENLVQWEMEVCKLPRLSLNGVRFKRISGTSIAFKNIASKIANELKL
UniProt P11309, sequence (P11309 whole entry, looked up): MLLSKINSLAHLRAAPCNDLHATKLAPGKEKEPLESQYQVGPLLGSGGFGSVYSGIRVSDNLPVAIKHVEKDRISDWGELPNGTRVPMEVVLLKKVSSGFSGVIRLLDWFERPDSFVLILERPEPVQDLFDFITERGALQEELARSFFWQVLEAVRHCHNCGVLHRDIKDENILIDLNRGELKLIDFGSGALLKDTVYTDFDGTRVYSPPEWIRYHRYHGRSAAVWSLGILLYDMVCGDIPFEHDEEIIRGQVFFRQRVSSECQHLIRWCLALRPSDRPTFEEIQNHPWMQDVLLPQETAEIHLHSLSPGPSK
UniProt Q9BUB5, sequence (Q9BUB5 whole entry, looked up): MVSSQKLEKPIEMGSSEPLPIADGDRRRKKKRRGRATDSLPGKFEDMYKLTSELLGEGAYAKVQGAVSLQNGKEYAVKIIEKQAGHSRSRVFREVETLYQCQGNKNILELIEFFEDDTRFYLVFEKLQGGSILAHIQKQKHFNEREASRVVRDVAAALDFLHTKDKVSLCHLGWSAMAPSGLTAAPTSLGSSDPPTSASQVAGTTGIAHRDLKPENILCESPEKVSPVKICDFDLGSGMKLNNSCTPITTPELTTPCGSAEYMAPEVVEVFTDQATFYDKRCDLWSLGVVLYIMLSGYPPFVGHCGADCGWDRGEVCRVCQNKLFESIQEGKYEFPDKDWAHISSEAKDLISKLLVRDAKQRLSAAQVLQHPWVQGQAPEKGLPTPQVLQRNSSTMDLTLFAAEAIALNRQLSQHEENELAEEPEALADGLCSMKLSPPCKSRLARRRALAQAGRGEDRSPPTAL
UniProt Q16816, sequence (Q16816 whole entry, looked up, canonical isoform): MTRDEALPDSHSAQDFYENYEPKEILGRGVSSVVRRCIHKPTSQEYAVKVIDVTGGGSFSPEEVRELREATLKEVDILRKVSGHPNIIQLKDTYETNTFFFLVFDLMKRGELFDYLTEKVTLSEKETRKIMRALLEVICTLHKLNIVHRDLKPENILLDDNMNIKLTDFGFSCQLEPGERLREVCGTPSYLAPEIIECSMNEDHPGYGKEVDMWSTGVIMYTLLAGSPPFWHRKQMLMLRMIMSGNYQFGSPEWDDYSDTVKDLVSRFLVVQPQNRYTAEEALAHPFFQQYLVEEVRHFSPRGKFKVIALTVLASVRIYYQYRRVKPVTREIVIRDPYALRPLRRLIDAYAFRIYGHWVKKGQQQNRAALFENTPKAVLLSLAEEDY
UniProt Q14680, sequence (Q14680 whole entry, looked up): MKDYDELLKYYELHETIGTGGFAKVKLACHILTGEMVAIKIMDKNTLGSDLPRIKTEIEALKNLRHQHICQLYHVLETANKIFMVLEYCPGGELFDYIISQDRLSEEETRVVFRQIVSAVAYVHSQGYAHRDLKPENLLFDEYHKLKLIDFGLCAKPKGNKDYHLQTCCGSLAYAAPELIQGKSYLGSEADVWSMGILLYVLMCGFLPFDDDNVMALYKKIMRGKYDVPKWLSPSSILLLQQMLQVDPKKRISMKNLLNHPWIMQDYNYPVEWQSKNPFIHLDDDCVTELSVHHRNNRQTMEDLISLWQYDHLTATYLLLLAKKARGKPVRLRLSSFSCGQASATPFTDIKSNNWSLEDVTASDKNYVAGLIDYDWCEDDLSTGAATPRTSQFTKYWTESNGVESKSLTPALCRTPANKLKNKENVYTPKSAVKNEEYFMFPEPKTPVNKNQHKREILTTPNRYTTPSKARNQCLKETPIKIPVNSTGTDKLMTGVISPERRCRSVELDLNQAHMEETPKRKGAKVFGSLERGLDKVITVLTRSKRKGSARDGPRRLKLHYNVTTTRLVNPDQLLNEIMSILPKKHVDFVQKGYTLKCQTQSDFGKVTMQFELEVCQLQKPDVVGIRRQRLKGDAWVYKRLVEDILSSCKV
UniProt Q96RG2, sequence (Q96RG2 whole entry, the tested form may be a part): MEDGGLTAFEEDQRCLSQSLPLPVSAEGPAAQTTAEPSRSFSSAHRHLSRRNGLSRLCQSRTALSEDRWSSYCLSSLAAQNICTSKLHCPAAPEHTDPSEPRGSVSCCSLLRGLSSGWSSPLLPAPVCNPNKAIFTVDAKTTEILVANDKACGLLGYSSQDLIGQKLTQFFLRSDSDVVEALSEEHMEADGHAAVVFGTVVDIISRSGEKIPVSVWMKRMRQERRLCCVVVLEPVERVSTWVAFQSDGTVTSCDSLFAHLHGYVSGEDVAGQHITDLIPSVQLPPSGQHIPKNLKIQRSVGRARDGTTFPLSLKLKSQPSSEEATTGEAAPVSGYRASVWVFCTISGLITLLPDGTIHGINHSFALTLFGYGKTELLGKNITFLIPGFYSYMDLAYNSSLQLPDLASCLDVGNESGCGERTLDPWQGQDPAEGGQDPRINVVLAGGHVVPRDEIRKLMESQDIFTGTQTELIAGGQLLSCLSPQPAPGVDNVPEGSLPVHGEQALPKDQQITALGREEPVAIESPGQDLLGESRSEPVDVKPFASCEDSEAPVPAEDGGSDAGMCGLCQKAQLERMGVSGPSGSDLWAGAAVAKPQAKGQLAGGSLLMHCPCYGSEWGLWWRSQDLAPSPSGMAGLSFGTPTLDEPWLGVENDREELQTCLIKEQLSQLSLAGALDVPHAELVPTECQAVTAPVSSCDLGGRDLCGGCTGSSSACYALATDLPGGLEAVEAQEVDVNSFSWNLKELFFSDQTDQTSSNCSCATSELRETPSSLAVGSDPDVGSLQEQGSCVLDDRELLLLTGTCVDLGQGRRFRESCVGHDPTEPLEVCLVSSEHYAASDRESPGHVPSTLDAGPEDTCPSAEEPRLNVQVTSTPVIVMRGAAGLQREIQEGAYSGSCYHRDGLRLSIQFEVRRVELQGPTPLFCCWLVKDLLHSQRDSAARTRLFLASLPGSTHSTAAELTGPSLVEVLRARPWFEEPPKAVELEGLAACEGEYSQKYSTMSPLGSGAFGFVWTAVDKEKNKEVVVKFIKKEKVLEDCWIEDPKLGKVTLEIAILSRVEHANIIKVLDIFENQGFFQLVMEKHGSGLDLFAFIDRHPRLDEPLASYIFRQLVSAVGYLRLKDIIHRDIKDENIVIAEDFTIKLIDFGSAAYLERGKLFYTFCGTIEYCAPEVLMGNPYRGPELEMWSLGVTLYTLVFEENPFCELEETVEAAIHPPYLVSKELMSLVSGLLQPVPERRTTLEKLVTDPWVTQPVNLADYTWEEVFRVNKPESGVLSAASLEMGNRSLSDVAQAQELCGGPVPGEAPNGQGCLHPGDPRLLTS
UniProt Q9HBH9, sequence (Q9HBH9 whole entry, looked up): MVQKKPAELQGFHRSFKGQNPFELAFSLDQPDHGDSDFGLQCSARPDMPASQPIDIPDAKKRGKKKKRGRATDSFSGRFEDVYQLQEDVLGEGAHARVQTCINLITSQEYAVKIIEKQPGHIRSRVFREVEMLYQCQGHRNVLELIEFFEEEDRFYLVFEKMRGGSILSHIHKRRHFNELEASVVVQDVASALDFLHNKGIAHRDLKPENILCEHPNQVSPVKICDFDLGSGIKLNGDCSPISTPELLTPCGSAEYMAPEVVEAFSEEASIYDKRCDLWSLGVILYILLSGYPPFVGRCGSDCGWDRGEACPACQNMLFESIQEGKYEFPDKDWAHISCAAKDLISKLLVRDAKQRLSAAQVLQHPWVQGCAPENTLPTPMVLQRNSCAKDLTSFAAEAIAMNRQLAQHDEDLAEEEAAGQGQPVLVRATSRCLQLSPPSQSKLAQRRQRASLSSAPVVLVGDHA

On to `O=C1NC(=O)C(c2ccccc2Cl)=C1Nc1cc(Cl)c(O)c(Cl)c1`, for which the inhibition – broadly, the change of the read-out against control, counted positive when it falls – in [1] came to 6.23%; in [2], 0.15%; in assay [3], 1.48%; in [4], 2.15%; in assay [5], 4.51%; in assay [6], 3.53%. Further, the inhibition is 8.39% in assay [7]; 2.01% in assay [8]; 4.98% in [9]; -0.74% in [10]; 0.24% in assay [11]; -0.25% in assay [12]. In addition, the inhibition in [13] is 1.3%; in [14], -0.47%; in [15], 3.29%; in assay [16] it was 3.06%; in assay [17], 6.84%; in assay [18] it was 1.02%. The inhibition in assay [19] was 1.2%; in assay [20], -0.59%.
For the molecule `Fc1ccc(-c2ncn(C3CCNCC3)c2-c2ccnc(Oc3cccc(F)c3)n2)cc1`, the inhibition in assay [1] is 2.96%; in assay [2], 1.49%; in assay [3], 2.54%; in assay [4] it was 6.14%; in assay [5], 8.59%; in assay [6], 3.77%. Also, the inhibition in assay [7] came out at 8.14%; in assay [8], 2.53%; in assay [9], 6.08%; in assay [10], 1.88%; in [11], 4.61%; in assay [12], 0%. The inhibition is 0.05% in assay [13]; 3.42% in [14]; 7.42% in assay [15]; 5.51% in assay [16]; 5.22% in [17]; 1.22% in assay [18]. Also, the inhibition is 2.85% in assay [19] and -0.15% in assay [20].
For the molecule `CS(=O)(=O)c1ccc(Oc2nccc(-c3c(-c4ccc(F)cc4)ncn3C3CCNCC3)n2)cc1`, the inhibition in assay [1] was 1.04%; in assay [2], 2.08%; in [3] it was 2.71%; in assay [4] it was 2.75%; in assay [5], 5.71%; in [6], 2.85%. In addition, the inhibition in assay [7] was 3.29%; in assay [8] it was -0.37%; in assay [9], -2.48%; in [10], -2.4%; in assay [11], -1.37%; in assay [12], -0.46%. In addition, the inhibition came to 0.12% in [13]; 6.04% in assay [14]; 4.61% in assay [15]; 4.27% in [16]; 4% in assay [17]; 0.75% in [18]. Also, the inhibition in [19] was 1.73%; in assay [20], 0.42%.
On to `Fc1ccc(-c2ncn(C3CCNCC3)c2-c2ccnc(Oc3ccc(Cl)cc3)n2)cc1`, for which the inhibition in assay [1] was -0.77%; in assay [2] it was 0.37%; in [3], 1.32%; in [4], 2.83%; in assay [5], 4.47%; in assay [6], 1.99%. The inhibition in [7] was 2.51%; in [8] it was 1.24%; in assay [9], 2.75%; in assay [10] it was 0.75%; in assay [11], 2.28%; in assay [13] it was 0.41%. The inhibition in assay [14] is 4.08%; in [15], 4.85%; in [16], -2.35%; in assay [17], -2.67%; in assay [18], 0.09%; in [19], 1.92%. Further, in assay [20], the inhibition was found to be 0.62%.
`Fc1ccc(-c2ncn(C3CCNCC3)c2-c2ccnc(Oc3cccc(C(F)(F)F)c3)n2)cc1`: the inhibition is 4.6% in assay [1]; 3.47% in [2]; 2.99% in assay [3]; 3.33% in [4]; 5.2% in [5]; 2.89% in assay [6]. Also, the inhibition in [7] is 2.55%; in assay [8], 0.48%; in [9], 0.21%; in assay [10], 0.95%; in assay [11], 1.08%; in assay [12] it was -0.12%. The inhibition is 0.95% in assay [13]; 7.66% in assay [14]; 7.21% in assay [15]; 8.37% in assay [16]; 7.18% in assay [17]; -0.31% in assay [18]. The results for the inhibition in [19] and in assay [20] were 1.39% and 0.19%, respectively.
For `O=C1NC(=O)C(c2cccc([N+](=O)[O-])c2)=C1Nc1cc(Cl)c(O)c(Cl)c1`, the inhibition is 6.69% in assay [1]; 2.11% in assay [2]; 6.06% in [3]; -2.15% in assay [4]; -3.64% in assay [5]; 1.73% in assay [6]. Besides, the inhibition in [7] was 3.09%; in assay [8] it was 1.49%; in assay [9], 2.79%; in assay [10], -1.88%; in assay [11], 6.07%; in assay [12] it was 0.71%. Also, the inhibition was 1.32% in assay [13]; 4.22% in assay [14]; 4.24% in assay [15]; 3.23% in [16]; 2.81% in [17]; -0.22% in [18]. Also, the figures for the inhibition in [19] and in assay [20] were 1.59% and 0.69%, respectively.
In the case of `O=C(O)c1ccc(Oc2nccc(-c3c(-c4ccc(F)cc4)ncn3C3CCNCC3)n2)cc1`, the inhibition in assay [1] was found to be 4.41%; in assay [2], 2.12%; in [3], 2.33%; in assay [4], 4.49%; in assay [5] it was 11.4%; in assay [6], 4.3%. Besides, the inhibition was 2.69% in [7]; 1.37% in assay [8]; 2.78% in assay [9]; 2.25% in [10]; 4.16% in assay [11]; -2.47% in assay [12]. Further, the inhibition was -1.26% in assay [13]; 0.98% in assay [14]; 3.36% in assay [15]; 5.58% in assay [16]; 4.12% in assay [17]; 1.46% in [18]. The inhibition in assay [19] is 2.36%; in assay [20] it was -0.61%.

These data come from ChEMBL document CHEMBL1961873, “Compounds: GSK PKIS; Assays: Nanosyn kinase panel” (2012).
